About 14,000 (4.5%) of roughly 310,000 compounds showed an effect of 50% or more. Effects have a minus sign here. This is one part of the list.
These molecules were tested against human ether-à-go-go-related gene (hERG) potassium channel (human, UniProt Q12809) (assay: primary screen, population patch clamp on CHO cells stably expressing hERG).
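Further: peak tail current of the secondary pulse compared with the same well before compound.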

Chain of human ether-à-go-go-related gene (hERG) potassium channel (Q12809 whole entry, looked up): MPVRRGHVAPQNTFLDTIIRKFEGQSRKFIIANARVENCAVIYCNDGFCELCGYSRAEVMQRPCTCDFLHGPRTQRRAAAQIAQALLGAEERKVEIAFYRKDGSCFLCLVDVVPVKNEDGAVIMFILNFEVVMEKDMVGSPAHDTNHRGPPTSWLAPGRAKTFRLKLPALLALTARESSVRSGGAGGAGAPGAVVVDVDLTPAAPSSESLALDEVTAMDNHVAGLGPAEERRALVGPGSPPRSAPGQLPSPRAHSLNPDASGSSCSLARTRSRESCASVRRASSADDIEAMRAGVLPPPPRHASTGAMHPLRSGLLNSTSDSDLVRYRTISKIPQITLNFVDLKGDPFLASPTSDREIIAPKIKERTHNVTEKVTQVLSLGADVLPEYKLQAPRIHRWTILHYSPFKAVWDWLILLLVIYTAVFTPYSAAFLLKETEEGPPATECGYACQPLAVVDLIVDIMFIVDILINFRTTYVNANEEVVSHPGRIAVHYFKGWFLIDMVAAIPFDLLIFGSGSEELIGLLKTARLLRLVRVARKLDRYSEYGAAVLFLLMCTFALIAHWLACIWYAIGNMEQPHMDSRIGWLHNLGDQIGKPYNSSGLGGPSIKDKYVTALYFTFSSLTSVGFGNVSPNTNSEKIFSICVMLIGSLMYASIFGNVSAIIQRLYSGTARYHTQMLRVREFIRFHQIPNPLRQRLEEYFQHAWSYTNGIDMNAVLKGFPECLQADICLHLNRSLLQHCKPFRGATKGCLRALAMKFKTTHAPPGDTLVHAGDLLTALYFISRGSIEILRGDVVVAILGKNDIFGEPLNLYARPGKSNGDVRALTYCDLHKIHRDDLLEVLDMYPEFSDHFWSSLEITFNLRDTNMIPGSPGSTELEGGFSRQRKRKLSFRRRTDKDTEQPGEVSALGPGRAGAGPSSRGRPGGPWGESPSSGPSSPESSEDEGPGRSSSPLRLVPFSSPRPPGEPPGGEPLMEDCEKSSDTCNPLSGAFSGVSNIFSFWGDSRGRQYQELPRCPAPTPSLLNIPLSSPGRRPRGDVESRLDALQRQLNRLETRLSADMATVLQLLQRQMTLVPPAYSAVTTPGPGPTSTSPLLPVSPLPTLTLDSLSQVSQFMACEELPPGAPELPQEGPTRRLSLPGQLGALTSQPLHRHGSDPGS

Row | Structure (SMILES) | hERG current change (%, negative = inhibition) at 10uM [%]
1 | C#CCOCCOCCOCCNc1nc(N2CCN(C(=O)CCCCCCCCCCNC(=O)[C@H]([C@@H](C)CC)n3cc(CCCCCN)nn3)CC2)nc(N2CCN(C(=O)CCCCCCCCCCNC(=O)[C@@H]([C@H](C)O)n3cc(C)nn3)CC2)n1 | -7.88
2 | COc1ccc(-n2ncc3c2CC(C)(C)CC3NC(=O)c2ccnn2C)cc1 (stereo not drawn) | -78
3 | CCC(=O)Nc1nc2n(n1)C(c1ccc(OC)cc1)C=C(c1ccccc1)N2 (stereo not drawn) | 7.26
4 | CC(C)CCc1noc(CN2CCN(CC(=O)NC(C)C)CC2)n1 | -4.24
5 | CCCOC(=O)c1ccc(NC(=O)c2cc(Cl)ccc2OC)cc1 | -6.88
6 | Cc1c(C(=O)O)cccc1-c1ccc(/C=C2\SC(=O)NC2=O)o1 | 19.4
7 | CCCC1CCC(c2nc(-c3cccnc3)no2)CC1 (stereo not drawn) | 2.03
8 | O=C(NC1CCN(C(=O)Nc2ccccc2)CC1)C1CCCCC1 | -7.88
9 | CCN(CC)C(=O)c1cccc(-c2ccc(OC)cc2)c1 | -17
10 | COc1ccc(OC)c(C(O)c2nc3ccccc3n2C)c1 (stereo not drawn) | -5.81
11 | COc1ccccc1N(CC(=O)N/N=C/c1ccc(OCC(=O)NCc2ccco2)cc1)S(=O)(=O)c1ccc(C)cc1 | 7.99
12 | CCOc1ccc(CCNC(=O)COC(=O)COc2cc(C)cc(C)c2)cc1OCC | 5.31
13 | CCOP(=O)(Nc1ccc2oc(=O)c3ccccc3c2c1)OCC | -6.96
14 | COc1cc(C(C)=O)ccc1OCC(=O)Nc1ccccc1N1CCCCC1 | 4.27
15 | CN(CCCCCCCCC(=O)/C=N/O)Cc1ccccc1.Cl | -58.4
16 | CN(C)C(=O)CSc1nnc(-c2cnccn2)n1C | 7.76
17 | CCCN(CCO)Cc1ccc(F)c(Br)c1 | -5.08
18 | COc1cc(CN2CCCCC2)ccc1OCc1ccccc1.O=C(O)C(=O)O | -35.1
19 | CCc1ccccc1N(CC(=O)NCC1CCCO1)C(=O)CCC(=O)Nc1cc(C)on1 (stereo not drawn) | 6.32
20 | COc1cccc(CNC(=O)CC2Sc3ccccc3NC2=O)c1 (stereo not drawn) | 12.9
21 | COCCC(=O)N1CCC(Oc2ccc(C(=O)NCCc3cn[nH]c3)cc2)CC1 | 20.2
22 | Cn1c(CNc2ccc(Cl)cc2)nnc1SCC#N | -14.5
23 | Cc1ccc(N=C2NC(=O)/C(=C/c3cccn3C)S2)cc1C | 6.08
24 | O=C(CN1CCN(Cc2ccc(Cl)cc2)CC1)N/N=C/c1cccc(F)c1 | -69.2

Source: article PMC4336329 (PLoS ONE, 2015)
